Screen size: about 45,000 compounds; about 65 (0.1%) were called active. Calls come from the whole dose curve; as a rule, active = well fitted activation curve with a large enough effect; inconclusive = small, poorly fitted or top-dose-only effect; inactive = no such curve, though single readings can be large or run the other way. This is one part of the list.
Molecular target: Galactocerebrosidase (Homo sapiens) (UniProt P54803)
Test: A Novel Cell-Based Assay to Identify Small Molecules for B -Galactocerebrosidase; note: 0% is about no effect; nearly all actives have a fitted effect of over 65% in size
Conditions: 145M-Twi-hGALC-G270D cells (Twitcher mouse brain line with human GALC G270D), HMU-beta-Gal fluorescence, 48 h; series mostly up to 57.5 µM; activation: at the top concentration
How it was run: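 Mutant human GALC (G270D), stably expressed in a Twitcher mouse brain cell line lacking endogenous GALC, is measured in live-treated cells via 6-hexadecanoylamino-4-methylumbelliferyl-β-galactoside hydrolysis (0.1 mM final, pH 5.2) with fluorescent detection.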

UniProt P54803, sequence (P54803 whole entry, looked up): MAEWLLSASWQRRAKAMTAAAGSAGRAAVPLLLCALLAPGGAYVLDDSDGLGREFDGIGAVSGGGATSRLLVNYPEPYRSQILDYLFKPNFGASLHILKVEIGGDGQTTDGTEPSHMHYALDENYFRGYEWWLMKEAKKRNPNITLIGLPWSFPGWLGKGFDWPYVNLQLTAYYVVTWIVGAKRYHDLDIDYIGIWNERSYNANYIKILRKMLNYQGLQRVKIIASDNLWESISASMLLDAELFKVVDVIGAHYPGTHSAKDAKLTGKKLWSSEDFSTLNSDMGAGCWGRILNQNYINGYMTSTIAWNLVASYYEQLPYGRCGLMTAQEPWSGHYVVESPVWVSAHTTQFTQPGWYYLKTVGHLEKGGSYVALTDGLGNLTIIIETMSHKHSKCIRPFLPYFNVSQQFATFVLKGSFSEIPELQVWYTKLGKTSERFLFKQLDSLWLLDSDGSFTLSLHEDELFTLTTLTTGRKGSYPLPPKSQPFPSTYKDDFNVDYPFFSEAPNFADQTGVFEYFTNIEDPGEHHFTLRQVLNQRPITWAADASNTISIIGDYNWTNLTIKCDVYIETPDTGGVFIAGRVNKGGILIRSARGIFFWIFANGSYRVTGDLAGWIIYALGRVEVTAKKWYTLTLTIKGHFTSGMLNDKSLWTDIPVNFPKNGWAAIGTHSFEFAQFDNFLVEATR

activation, inactive:
Cc1ccc(CN(C(=O)Nc2cccc(Cl)c2)c2ccccn2)cc1 -31.1%
COc1ccc(Nc2cc(C(=O)NC3CCCC3)c3ccccc3n2)c(OC)c1 -8.21%
CCOc1cccc(C2c3c(oc4ccc(F)cc4c3=O)C(=O)N2CCc2ccc(OC)cc2)c1 (stereo not given) -17.4%
COc1ccc(NC(=O)c2nnn(Cc3nc(-c4cc(Br)ccc4OC)oc3C)c2C)cc1 -10.1%
Cc1ccc(C)c(Cn2c(=O)n(CCCCC(=O)NCc3ccccc3Cl)c(=O)c3ccccc32)c1 1.89%
CCn1ccc2cc(S(=O)(=O)N3CCC(C(=O)NCc4cccc(C)c4)CC3)ccc21 -4.83%
CCCCNC(=O)c1cc(Sc2ccc(OCC)cc2)nc2ccccc12 -0.808%
CCOc1ccccc1NC(=O)Cn1ccn(-c2ccccc2)c(=O)c1=O -12.7%
COc1ccccc1N1CCN(c2csc3ccc(Cl)cc3c2=O)CC1 -10.6%
Cc1ccc(Cn2c(-c3ccccc3)nc3ccccc32)cc1 -14.1%
COc1cc(/C=C(\C#N)c2nc3ccccc3c(=O)[nH]2)cc(OC)c1OC -5.65%
COc1ccc(S(=O)(=O)N2CCN(c3ccccc3OC)CC2)cc1-c1noc(C)n1 -12.4%
COc1cc(OC)c(NC(=O)c2cc(CN3CCOCC3)on2)cc1Cl -16%
CCn1ccc2cc(S(=O)(=O)N3CCCN(C(=O)NCC(C)C)CC3)ccc21 -26.8%
O=C(CN1C(=O)C2CCCCN2c2ccc(C(=O)N3CCCC3)cc21)NCc1cccc(Cl)c1 (stereo not given) -20.9%
CN(C)c1ccc(CNC(=O)c2cc3cc(S(=O)(=O)N4CCCCC4)ccc3n2C)cc1 -14.3%
CCn1cc(C(=O)NCc2ccc(C)cc2)c(=O)c2cc(S(=O)(=O)N3CCC(C)CC3)ccc21 -11.9%
Cc1ccc(-c2c(C(=O)Nc3ccc(F)c(F)c3)oc(=O)c3ccccc23)cc1 -9.87%
CCOC(=O)OC(C)OC1=C(C(=O)Nc2ccccn2)N(C)S(=O)(=O)c2ccccc21 (stereo not given) -19.5%
CCOc1ccc(CNS(=O)(=O)c2c(C(=O)N3CCCCCC3)c(C)n(C)c2C)cc1OC -22.8%
Cc1ccc(Cl)c2sc(NC(=O)CS(=O)(=O)c3ccc(Cl)cc3)nc12 -15.1%
CC(=O)[C@H]1CC[C@H]2[C@@H]3C[C@H](C)C4=CC(=O)CC[C@]4(C)[C@H]3[C@@H](O)C[C@]12C -12%
Cc1cccc(N2CCN(C(=O)CSCc3ccc(F)cc3)CC2)c1C -12.2%
CCCCN(C)C(=O)C1CCCN(c2ncnc3onc(-c4ccc(F)cc4)c23)C1 (stereo not given) -19.7%
CCN(CC)S(=O)(=O)c1ccc2c(c1)c(=O)c(C(=O)NCc1ccccc1)cn2C -12.2%
Cc1ccc(NC(=O)Nc2nnc(N3CCCC3)s2)c(C)c1 8.33%
Cc1ccc(CNC(=O)Cc2coc3cc(C)cc(C)c23)cc1 -14.8%
COc1ccc(-c2cn3nc(N4CCC(C(=O)Nc5cccc(Cl)c5)CC4)sc3n2)cc1 -10.6%
COc1cc(CN(CC2CCCO2)C(=O)c2ccc(F)cc2)cc(OC)c1OC (stereo not given) -4.69%
CC(=O)N1CCCc2cc(S(=O)(=O)N3CCC(C(=O)NCc4ccc(N(C)C)cc4)CC3)ccc21 -20.2%
CCCNC(=O)c1ccc(-n2c(-c3ccccc3)cc3c2CCCCC3)cc1 -0.368%
COc1ccc(CNC(=O)CCC(=O)N2CC3CCCN3c3ccccc32)cc1 (stereo not given) -12.8%
COc1ccccc1CNC(=O)c1ccc(CS(=O)(=O)c2ccccc2C)o1 -8.36%
O=C(NCc1ccccc1)c1ccc(NC(=O)c2nsc3ccccc23)cc1 -8.7%
CCOC(=O)c1ccc(NC(=O)C2CCCN(c3ccc(Sc4ccc(C)cc4)nn3)C2)cc1 (stereo not given) 1.78%
Cc1cc(Br)ccc1NC(=O)CCS(=O)(=O)c1cccc2nsnc12 -6.94%
CC(=O)NCCNc1nc2c(S(=O)(=O)c3ccc(C)c(C)c3)nnn2c2ccc(Cl)cc12 24%
CCN(C(=O)CN(C)S(=O)(=O)c1ccc2c(c1)c(=O)n(C)c(=O)n2C)c1ccc(OC)cc1 -41.5%
COC(=O)c1ccc(-n2nnc(-c3nc(-c4ccc5c(c4)OCO5)no3)c2C)cc1 -25%
CC(C)c1nc2ccc(C(=O)NCCCN3CCN(c4ccccc4F)CC3)cc2o1 -8.23%
Cn1c(=NC(=O)c2ccc3c(c2)OCCO3)sc2cc(S(C)(=O)=O)ccc21 -15.6%
COc1ccccc1CNC(=O)C(CC(C)C)NS(=O)(=O)c1ccc2c(c1)oc(=O)n2C (stereo not given) 2.78%
Cc1ccccc1-c1noc(C(C)NC(=O)c2ccco2)n1 (stereo not given) -8.11%
CCC(=O)N1CCc2cc(S(=O)(=O)NCCC(=O)NCc3ccccc3Cl)ccc21 -3.27%
Cc1ccc(C(C)C)c(OCC(=O)Nc2ccc(S(=O)(=O)Nc3onc(C)c3C)cc2)c1 -3.57%
CCOc1ccc2nc(NC(=O)CS(=O)(=O)c3ccc(Cl)cc3)sc2c1 -16.9%
Cc1ccc(C2c3c(oc4ccccc4c3=O)C(=O)N2c2ccc(C)cn2)cc1 (stereo not given) -0.799%
N#Cc1ccc(CN2C(=O)c3ccccc3Sc3ccc(C(=O)OCc4ccco4)cc32)cc1 -3%
Cn1c(=O)nc2n(-c3ccc(Cl)c(Cl)c3)c3cc(Cl)ccc3cc-2c1=O -2.25%
CCCCNC(=O)NS(=O)(=O)c1ccc(C)cc1 -10%
O=C(Nc1c(C(=O)Nc2ccc(F)cc2)oc2ccccc12)c1ccccc1F -3.08%
Cc1ccc(C)c(NC(=O)CN2C(=O)COc3ccc(Cl)cc32)c1 -0.469%
Cc1cc(O)cc2c1O[C@](C)(CCC[C@H](C)CCC[C@H](C)CCCC(C)C)CC2 -7.24%
COc1ccccc1CNC(=O)C1CCCN(c2nnc(-n3c(C)ccc3C)s2)C1 (stereo not given) -10.1%
CC1=C(C(=O)OCC2CCCCC2)C(c2ccccc2F)CC(=O)N1 (stereo not given) -9.11%
Cc1ccc(C(C)C)c(OCC(=O)N2CCC(c3nc4ccccc4o3)CC2)c1 -5.02%
COc1ccc(C(=O)N(Cc2ccc(C(C)C)cc2)C2CCS(=O)(=O)C2)cc1 (stereo not given) -11.5%
Cc1ccccc1CNS(=O)(=O)c1csc(C(N)=O)c1 -15.7%
Cc1nc2nc(SCC(=O)NCCc3ccccc3)nn2c(C)c1Cc1c(F)cccc1Cl -6.38%
Cc1nn(-c2ccc(N3CCOCC3)nn2)c(C)c1CCC(=O)NCc1ccc(OC(C)C)cc1 -11.6%
Cc1c(C2=CCN(S(=O)(=O)c3ccc(CC(C)C)cc3)CC2)c2ccccc2n1CC(=O)N1CCCC1 8.53%
CCn1c(SCCOc2ccccc2F)nc2ccccc21 -12.9%
CCOc1ccccc1C(=O)Nc1ccc2c(c1)N(C)C(=O)c1ccccc1S2 0.5%
Cc1cccc(N(C)S(=O)(=O)c2cc3c(cc2Cl)NC(=O)CO3)c1 -14.5%
Cc1nn2c(=O)cc(COC(=O)c3cccc(NC(=O)c4cccs4)c3)nc2s1 -8.81%
CCOc1ccc(NS(=O)(=O)c2ccc3[nH]c4c(c3c2)CCCC4)cc1 -9.94%
Cc1c(Cl)cccc1NC(=O)CSc1nc(=O)n(Cc2ccccn2)c2c1CCC2 -13.3%
CCCSc1ncc(Cl)c(C(=O)Nc2sc3c(c2C(=O)NCCOC)CCCC3)n1 1.52%
Cc1ccc(CNS(=O)(=O)c2ccc3c(c2)CCN3S(C)(=O)=O)cc1 -10.7%
COc1ccc2nc(N(Cc3cccnc3)C(=O)c3ccc4c(c3)OCCO4)sc2c1 -13.6%
COc1ccc(N(CC(=O)N2CCN(c3cccc(C)c3C)CC2)S(=O)(=O)c2c(C)noc2C)cc1 -0.0218%
COc1ccc(-c2cn3nc(N4CCC(C(=O)Nc5cccc(C)c5C)CC4)sc3n2)cc1 1.82%
O=C(COc1ccccc1Cl)Nc1ccc2oc(-c3ccccc3F)nc2c1 -7.87%
COCCNC(=O)CCCn1c(=O)c2cc(OC)c(OC)cc2n(CC(=O)Nc2ccc(F)cc2)c1=O -4.58%
COc1cc(NC(=O)Cn2nc(C(F)(F)F)c3c2CCCC3)c(OC)cc1Cl -25.5%
Cc1nn2c(=O)cc(COC(=O)c3ccc(NC(=O)C4CCCCC4)cc3)nc2s1 -18.5%
Cc1ccc(NC(=O)Cn2c(=O)n(CCCCC(=O)NCCc3ccccc3)c(=O)c3ccccc32)c(C)c1 -16.9%
O=C(Nc1ccc(F)cc1F)c1cc(-c2ccccc2O)no1 -5.86%
CCCCOC(=O)c1ccc(NC(=O)c2cc3c(=O)n4cccc(C)c4nc3n2C)cc1 -7.5%
CCOc1ccc(CNC(=O)c2ccc(-c3nc(CS(=O)(=O)c4ccccc4)c(C)o3)cc2)cc1 -12.6%
Cc1ccc(NC(=O)C(NS(=O)(=O)c2ccc3c(c2)CCC(=O)N3)c2ccccc2)cc1C (stereo not given) -2.27%
O=C(CSc1nc(=O)[nH]c2c1CCCC2)Nc1ccccc1C(F)(F)F -13.4%
CCOC(=O)C1CCN(CCC(=O)Nc2ccc(Br)c(C)c2)CC1 -15.6%
COc1ccc(NC(=O)CN2CCCN(Cc3ccc(Cl)cc3)S2(=O)=O)cc1Cl -3.47%
COc1ccc(CNC(=O)c2cnc3sc(N4CCCCCC4)nn3c2=O)cc1 -6.93%
CCOC(=O)c1cnc2ccccc2c1NCCc1ccc(OC)c(OC)c1 -6.94%
CCOC(=O)c1ccc(NC(=O)Cn2cc(C(=O)c3ccc(CC)cc3)c(=O)c3ccc(C)nc32)cc1 -0.323%
CCN1c2ccccc2-c2nc(SCC(=O)NCc3ccc(C)cc3)ncc2S1(=O)=O -10.1%
CCOc1ccc(NC(=O)CN(c2ccc(CC)cc2)S(=O)(=O)c2c(C)noc2C)cc1 -7.89%
CCOc1ccc(-c2nc(Cn3c(=O)cc(-c4ccccc4)c4c(C)nn(C)c43)c(C)o2)cc1 -4.56%
Cc1ccc(CNC(=O)C2CCN(S(=O)(=O)c3c(C)noc3/C=C/c3cccs3)CC2)cc1 -1.55%
Cc1sc2ncn(CC(=O)N3CCN(c4ccc(F)cc4)CC3)c(=O)c2c1S(=O)(=O)N1CCC(C)CC1 -5.1%
COC(=O)C1=C(c2ccccc2)c2ccccc2S(=O)(=O)N1CC(=O)Nc1ccc(F)c(F)c1 -14.6%
Cc1ccc(CNC(=O)Cn2c(=O)cc(C(F)(F)F)c3c(C)nn(C)c32)cc1 -10.2%
Oc1c(C(c2ccc(Cl)cc2Cl)N2CCN(c3ccccc3)CC2)sc2nc(-c3ccco3)nn12 (stereo not given) -13.7%

— PubChem BioAssay AID1159614 (National Center for Advancing Translational Sciences (NCATS), 2016)
